From the supplement of paper PMC8948288
Shown are siRNA guide strands that differ only in the seed, positions 2 to 7.

Columns and labels:
[1] = test system: GL261; experiment: cell viability relative to siNT1 (ATP content); H4 human neuroglioma and GL261 mouse glioma; higher = less toxic; details: siRNA concentration 25 nM; 96 h; mouse
[2] = test system: H4; experiment: as above; details: siRNA concentration 10 nM; 96 h; human
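Note: cells reverse transfected with siRNA duplexes via lipid reagent, ATP read by luminescence, triplicate wells, values scaled to mean viability with non-targeting control siNT1.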

Sequence | cell viability [1] | cell viability [2]
UCGGUGAACAUGUAAACCA | 60.4% | 80.7%
UCGGUGCACAUGUAAACCA | 29.4% | 11.1%
UCGGUGGACAUGUAAACCA | 14.8% | 13.5%
UCGGUGUACAUGUAAACCA | 16.1% | 69.6%
UCGGUUAACAUGUAAACCA | 72.5% | 90.7%
UCGGUUCACAUGUAAACCA | 39.1% | 49%
UCGGUUGACAUGUAAACCA | 62.4% | 75.7%
UCGGUUUACAUGUAAACCA | 63.1% | 89.3%
UCGUAAAACAUGUAAACCA | 64.2% | 101%
UCGUAACACAUGUAAACCA | 60.8% | 70.5%
UCGUAAGACAUGUAAACCA | 48.9% | 107%
UCGUAAUACAUGUAAACCA | 39.4% | 86%
UCGUACAACAUGUAAACCA | 56.3% | 113%
UCGUACCACAUGUAAACCA | 17% | 50.8%
UCGUACGACAUGUAAACCA | 55% | 95.5%
UCGUACUACAUGUAAACCA | 58.4% | 87.6%
UCGUAGAACAUGUAAACCA | 65.4% | 110%
UCGUAGCACAUGUAAACCA | 26.9% | 36.2%
UCGUAGGACAUGUAAACCA | 46.7% | 70.7%
UCGUAGUACAUGUAAACCA | 27.4% | 82.6%
UCGUAUAACAUGUAAACCA | 51.2% | 96.1%
UCGUAUCACAUGUAAACCA | 38.6% | 72.6%

Sequence | cell viability [1] | cell viability [2]
UCGUAUGACAUGUAAACCA | 49.4% | 115%
UCGUAUUACAUGUAAACCA | 41.8% | 80.8%
UCGUCAAACAUGUAAACCA | 44.6% | 114%
UCGUCACACAUGUAAACCA | 28.6% | 66.6%
UCGUCAGACAUGUAAACCA | 36.8% | 84.7%
UCGUCAUACAUGUAAACCA | 47.5% | 97.4%
UCGUCCAACAUGUAAACCA | 47.9% | 87%
UCGUCCCACAUGUAAACCA | 11.3% | 43.1%
UCGUCCGACAUGUAAACCA | 54% | 63.4%
UCGUCCUACAUGUAAACCA | 18.7% | 33%
UCGUCGAACAUGUAAACCA | 71% | 88.3%
UCGUCGCACAUGUAAACCA | 22.1% | 25.5%
UCGUCGGACAUGUAAACCA | 45.1% | 58.2%
UCGUCGUACAUGUAAACCA | 37.5% | 67.7%
UCGUCUAACAUGUAAACCA | 83.2% | 101%
UCGUCUCACAUGUAAACCA | 13% | 51.4%
UCGUCUGACAUGUAAACCA | 51.3% | 82.5%
UCGUCUUACAUGUAAACCA | 39% | 96.2%
UCGUGAAACAUGUAAACCA | 49.4% | 85.1%
UCGUGACACAUGUAAACCA | 37.1% | 54.6%
UCGUGAGACAUGUAAACCA | 39.7% | 77%
UCGUGAUACAUGUAAACCA | 44.8% | 72.3%

Sequence | cell viability [1] | cell viability [2]
UCGUGCAACAUGUAAACCA | 52% | 94.6%
UCGUGCCACAUGUAAACCA | 31.3% | 69.4%
UCGUGCGACAUGUAAACCA | 29.9% | 124%
UCGUGCUACAUGUAAACCA | 65.5% | 79.4%
UCGUGGAACAUGUAAACCA | 47% | 67.3%
UCGUGGCACAUGUAAACCA | 16.9% | 16.6%
UCGUGGGACAUGUAAACCA | 23% | 27.7%
UCGUGGUACAUGUAAACCA | 14.2% | 43.7%
UCGUGUAACAUGUAAACCA | 67.2% | 95.5%
UCGUGUCACAUGUAAACCA | 20.8% | 72.4%
UCGUGUGACAUGUAAACCA | 28.6% | 86.7%
UCGUGUUACAUGUAAACCA | 18.2% | 87%
UCGUUAAACAUGUAAACCA | 39.6% | 87.6%
UCGUUACACAUGUAAACCA | 53.1% | 62.6%
UCGUUAGACAUGUAAACCA | 57.2% | 82.2%
UCGUUAUACAUGUAAACCA | 40.3% | 113%
UCGUUCAACAUGUAAACCA | 46.2% | 70.6%
UCGUUCCACAUGUAAACCA | 11.9% | 14%
UCGUUCGACAUGUAAACCA | 53.8% | 86.2%
UCGUUCUACAUGUAAACCA | 15.9% | 50.7%
UCGUUGAACAUGUAAACCA | 61% | 71.7%
UCGUUGCACAUGUAAACCA | 12.1% | 14.4%

Sequence | cell viability [1] | cell viability [2]
UCGUUGGACAUGUAAACCA | 50% | 60.2%
UCGUUGUACAUGUAAACCA | 26.8% | 68.8%
UCGUUUAACAUGUAAACCA | 61.8% | 105%
UCGUUUCACAUGUAAACCA | 31.3% | 74%
UCGUUUGACAUGUAAACCA | 43.1% | 92.4%
UCGUUUUACAUGUAAACCA | 56.4% | 98.1%
UCUAAAAACAUGUAAACCA | 52.5% | 75.5%
UCUAAACACAUGUAAACCA | 61% | 84.2%
UCUAAAGACAUGUAAACCA | 54.8% | 94.3%
UCUAAAUACAUGUAAACCA | 100% | 84.5%
UCUAACAACAUGUAAACCA | 55.3% | 74%
UCUAACCACAUGUAAACCA | 39.8% | 85.2%
UCUAACGACAUGUAAACCA | 68.1% | 80%
UCUAACUACAUGUAAACCA | 61% | 68.7%
UCUAAGAACAUGUAAACCA | 52.6% | 83.1%
UCUAAGCACAUGUAAACCA | 59.8% | 79.1%
UCUAAGGACAUGUAAACCA | 53% | 84%
UCUAAGUACAUGUAAACCA | 45.5% | 115%
UCUAAUAACAUGUAAACCA | 59.3% | 98.5%
UCUAAUCACAUGUAAACCA | 60.3% | 97.7%
